{
  "source": "the supplement of paper PMC8728848",
  "binders": {"B1": {"name": "CTLY 1 (Homo sapiens), Q6ZS10 (protein)", "chain": "AITCPEGWLPFEGKCYYFSPSTKSWDEARMFCQENYSHLVIINSFAEHNFVAKAHGSPRVYWLGLNDRAQEGDWRWLDGSPVTLSFWEPEEPNNIHDEDCATMNKGGTWNDLSCYKTTYWICERKGLNDIFEAQKIEWHE"}},
  "assay_in_all_cases": "glycan array binding signal (z-score within array); higher = stronger binding",
  "settings_in_all_cases": "glycan notation: IUPAC condensed, linker removed",
  "key": {"[1]": {"target": "Gal(b1-4)GlcNAc(a1-6)Gal(b1-4)GlcNAc", "how_it_was_run": "(§1)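 The binding signal is a Z-score computed within each array and averaged over linkers. Arrays of the same protein sequence at different concentrations or buffers were also averaged together. Data originate from 3228 arrays in the Consortium for Functional Glycomics database, kept only where the protein sequence was available.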"}, "[2]": {"target": "Gal(b1-4)GlcNAc(b1-2)Man(a1-3)Man(b1-4)GlcNAc(b1-4)GlcNAc", "how_it_was_run": "as §1"}, "[3]": {"target": "Gal(b1-4)GlcNAc(b1-2)Man(a1-3)[Gal(b1-4)GlcNAc(b1-2)Man(a1-6)]Man(b1-4)GlcNAc(b1-4)GlcNAc", "how_it_was_run": "as §1"}, "[4]": {"target": "Gal(b1-4)GlcNAc(b1-2)Man(a1-3)[Gal(b1-4)GlcNAc(b1-2)Man(a1-6)]Man(b1-4)GlcNAc(b1-4)[Fuc(a1-6)]GlcNAc", "how_it_was_run": "as §1"}, "[5]": {"target": "Gal(b1-4)GlcNAc(b1-2)Man(a1-3)[GlcNAc(b1-2)Man(a1-6)]Man(b1-4)GlcNAc(b1-4)GlcNAc", "how_it_was_run": "as §1"}, "[6]": {"target": "Gal(b1-4)GlcNAc(b1-2)Man(a1-3)[Man(a1-6)]Man(b1-4)GlcNAc(b1-4)GlcNAc", "how_it_was_run": "as §1"}, "[7]": {"target": "Gal(b1-4)GlcNAc(b1-2)Man(a1-6)Man(b1-4)GlcNAc(b1-4)GlcNAc", "how_it_was_run": "as §1"}, "[8]": {"target": "Gal(b1-4)GlcNAc(b1-2)Man(a1-6)[GlcNAc(b1-2)Man(a1-3)]Man(b1-4)GlcNAc(b1-4)GlcNAc", "how_it_was_run": "as §1"}, "[9]": {"target": "Gal(b1-4)GlcNAc(b1-2)Man(a1-6)[Man(a1-3)]Man(b1-4)GlcNAc(b1-4)GlcNAc", "how_it_was_run": "as §1"}, "[10]": {"target": "Gal(b1-4)GlcNAc(b1-2)[Gal(b1-4)GlcNAc(b1-4)]Man(a1-3)[Gal(b1-4)GlcNAc(b1-2)Man(a1-6)]Man(b1-4)GlcNAc(b1-4)GlcNAc", "how_it_was_run": "as §1"}, "[11]": {"target": "Gal(b1-4)GlcNAc(b1-2)[Gal(b1-4)GlcNAc(b1-4)]Man(a1-3)[Gal(b1-4)GlcNAc(b1-2)[Gal(b1-4)GlcNAc(b1-6)]Man(a1-6)]Man(b1-4)GlcNAc(b1-4)GlcNAc", "how_it_was_run": "as §1"}, "[12]": {"target": "Gal(b1-4)GlcNAc(b1-3)Gal(b1-3)GlcNAc", "how_it_was_run": "as §1"}, "[13]": {"target": "Gal(b1-4)GlcNAc(b1-3)Gal(b1-4)Glc", "how_it_was_run": "as §1"}, "[14]": {"target": "Gal(b1-4)GlcNAc(b1-3)Gal(b1-4)GlcNAc", "how_it_was_run": "as §1"}, "[15]": {"target": "Gal(b1-4)GlcNAc(b1-3)Gal(b1-4)GlcNAc(b1-3)Gal(b1-4)GlcNAc", "how_it_was_run": "as §1"}, "[16]": {"target": "Gal(b1-4)GlcNAc(b1-3)Gal(b1-4)[Fuc(a1-3)]GlcNAc(b1-3)Gal(b1-4)[Fuc(a1-3)]GlcNAc", "how_it_was_run": "as §1"}, "[17]": {"target": "Gal(b1-4)GlcNAc(b1-3)GalNAc", "how_it_was_run": "as §1"}, "[18]": {"target": "Gal(b1-4)GlcNAc(b1-3)[Gal(b1-4)GlcNAc(b1-6)]Gal(b1-4)GlcNAc", "how_it_was_run": "as §1"}, "[19]": {"target": "Gal(b1-4)GlcNAc(b1-3)[Gal(b1-4)GlcNAc(b1-6)]GalNAc", "how_it_was_run": "as §1"}, "[20]": {"target": "Gal(b1-4)GlcNAc(b1-3)[GlcNAc(b1-6)]Gal(b1-4)GlcNAc", "how_it_was_run": "as §1"}, "[21]": {"target": "Gal(b1-4)GlcNAc(b1-6)Gal(b1-4)GlcNAc", "how_it_was_run": "as §1"}, "[22]": {"target": "Gal(b1-4)GlcNAc(b1-6)GalNAc", "how_it_was_run": "as §1"}, "[23]": {"target": "Gal(b1-4)GlcNAc(b1-6)[Gal(b1-3)]GalNAc", "how_it_was_run": "as §1"}, "Gal3S(b1-3)GalNAc": {"target": "Gal3S(b1-3)GalNAc", "how_it_was_run": "as §1"}, "Gal3S(b1-3)GlcNAc": {"target": "Gal3S(b1-3)GlcNAc", "how_it_was_run": "as §1"}, "[24]": {"target": "Gal3S(b1-3)[Fuc(a1-4)]GlcNAc", "how_it_was_run": "as §1"}, "Gal3S(b1-4)Glc": {"target": "Gal3S(b1-4)Glc", "how_it_was_run": "as §1"}, "Gal3S(b1-4)Glc6S": {"target": "Gal3S(b1-4)Glc6S", "how_it_was_run": "as §1"}, "Gal3S(b1-4)GlcNAc": {"target": "Gal3S(b1-4)GlcNAc", "how_it_was_run": "as §1"}, "Gal3S(b1-4)GlcNAc6S": {"target": "Gal3S(b1-4)GlcNAc6S", "how_it_was_run": "as §1"}, "[25]": {"target": "Gal3S(b1-4)[Fuc(a1-3)]Glc", "how_it_was_run": "as §1"}, "[26]": {"target": "Gal3S(b1-4)[Fuc(a1-3)]Glc6S", "how_it_was_run": "as §1"}, "Gal3S4S(b1-4)GlcNAc": {"target": "Gal3S4S(b1-4)GlcNAc", "how_it_was_run": "as §1"}, "Gal3S6S(b1-4)GlcNAc": {"target": "Gal3S6S(b1-4)GlcNAc", "how_it_was_run": "as §1"}, "Gal3S6S(b1-4)GlcNAc6S": {"target": "Gal3S6S(b1-4)GlcNAc6S", "how_it_was_run": "as §1"}, "Gal4S(b1-4)GlcNAc": {"target": "Gal4S(b1-4)GlcNAc", "how_it_was_run": "as §1"}, "Gal4S6S(b1-4)GlcNAc": {"target": "Gal4S6S(b1-4)GlcNAc", "how_it_was_run": "as §1"}, "Gal6S(b1-4)Glc": {"target": "Gal6S(b1-4)Glc", "how_it_was_run": "as §1"}, "Gal6S(b1-4)Glc6S": {"target": "Gal6S(b1-4)Glc6S", "how_it_was_run": "as §1"}, "Gal6S(b1-4)GlcNAc": {"target": "Gal6S(b1-4)GlcNAc", "how_it_was_run": "as §1"}, "Gal6S(b1-4)GlcNAc6S": {"target": "Gal6S(b1-4)GlcNAc6S", "how_it_was_run": "as §1"}, "GalNAc(a1-3)Gal": {"target": "GalNAc(a1-3)Gal", "how_it_was_run": "as §1"}, "GalNAc(a1-3)GalNAc": {"target": "GalNAc(a1-3)GalNAc", "how_it_was_run": "as §1"}, "[27]": {"target": "GalNAc(a1-3)GalNAc(a1-3)Gal(a1-4)Gal(b1-4)GlcNAc", "how_it_was_run": "as §1"}, "GalNAc(b1-3)Gal": {"target": "GalNAc(b1-3)Gal", "how_it_was_run": "as §1"}},
  "note": "This is one part of the list.",
  "data": [
    {"binder": "B1", "values": [
      {"measurement": "glycan array binding signal (z-score)", "setting": "[1]", "value": -0.231},
      {"measurement": "glycan array binding signal (z-score)", "setting": "[2]", "value": -0.206},
      {"measurement": "glycan array binding signal (z-score)", "setting": "[3]", "value": -0.242},
      {"measurement": "glycan array binding signal (z-score)", "setting": "[4]", "value": -0.239},
      {"measurement": "glycan array binding signal (z-score)", "setting": "[5]", "value": -0.236},
      {"measurement": "glycan array binding signal (z-score)", "setting": "[6]", "value": -0.219},
      {"measurement": "glycan array binding signal (z-score)", "setting": "[7]", "value": -0.226},
      {"measurement": "glycan array binding signal (z-score)", "setting": "[8]", "value": -0.215},
      {"measurement": "glycan array binding signal (z-score)", "setting": "[9]", "value": -0.232},
      {"measurement": "glycan array binding signal (z-score)", "setting": "[10]", "value": -0.241},
      {"measurement": "glycan array binding signal (z-score)", "setting": "[11]", "value": -0.227},
      {"measurement": "glycan array binding signal (z-score)", "setting": "[12]", "value": -0.234},
      {"measurement": "glycan array binding signal (z-score)", "setting": "[13]", "value": -0.243},
      {"measurement": "glycan array binding signal (z-score)", "setting": "[14]", "value": -0.24},
      {"measurement": "glycan array binding signal (z-score)", "setting": "[15]", "value": -0.25},
      {"measurement": "glycan array binding signal (z-score)", "setting": "[16]", "value": -0.176},
      {"measurement": "glycan array binding signal (z-score)", "setting": "[17]", "value": -0.245},
      {"measurement": "glycan array binding signal (z-score)", "setting": "[18]", "value": -0.234},
      {"measurement": "glycan array binding signal (z-score)", "setting": "[19]", "value": -0.246},
      {"measurement": "glycan array binding signal (z-score)", "setting": "[20]", "value": -0.243},
      {"measurement": "glycan array binding signal (z-score)", "setting": "[21]", "value": -0.244},
      {"measurement": "glycan array binding signal (z-score)", "setting": "[22]", "value": -0.23},
      {"measurement": "glycan array binding signal (z-score)", "setting": "[23]", "value": -0.243},
      {"measurement": "glycan array binding signal (z-score)", "setting": "Gal3S(b1-3)GalNAc", "value": -0.233},
      {"measurement": "glycan array binding signal (z-score)", "setting": "Gal3S(b1-3)GlcNAc", "value": -0.243},
      {"measurement": "glycan array binding signal (z-score)", "setting": "[24]", "value": 1.29},
      {"measurement": "glycan array binding signal (z-score)", "setting": "Gal3S(b1-4)Glc", "value": -0.251},
      {"measurement": "glycan array binding signal (z-score)", "setting": "Gal3S(b1-4)Glc6S", "value": -0.232},
      {"measurement": "glycan array binding signal (z-score)", "setting": "Gal3S(b1-4)GlcNAc", "value": -0.252},
      {"measurement": "glycan array binding signal (z-score)", "setting": "Gal3S(b1-4)GlcNAc6S", "value": -0.232},
      {"measurement": "glycan array binding signal (z-score)", "setting": "[25]", "value": 2.06},
      {"measurement": "glycan array binding signal (z-score)", "setting": "[26]", "value": 1.02},
      {"measurement": "glycan array binding signal (z-score)", "setting": "Gal3S4S(b1-4)GlcNAc", "value": -0.242},
      {"measurement": "glycan array binding signal (z-score)", "setting": "Gal3S6S(b1-4)GlcNAc", "value": -0.219},
      {"measurement": "glycan array binding signal (z-score)", "setting": "Gal3S6S(b1-4)GlcNAc6S", "value": -0.253},
      {"measurement": "glycan array binding signal (z-score)", "setting": "Gal4S(b1-4)GlcNAc", "value": -0.251},
      {"measurement": "glycan array binding signal (z-score)", "setting": "Gal4S6S(b1-4)GlcNAc", "value": -0.252},
      {"measurement": "glycan array binding signal (z-score)", "setting": "Gal6S(b1-4)Glc", "value": -0.235},
      {"measurement": "glycan array binding signal (z-score)", "setting": "Gal6S(b1-4)Glc6S", "value": -0.211},
      {"measurement": "glycan array binding signal (z-score)", "setting": "Gal6S(b1-4)GlcNAc", "value": -0.235},
      {"measurement": "glycan array binding signal (z-score)", "setting": "Gal6S(b1-4)GlcNAc6S", "value": -0.228},
      {"measurement": "glycan array binding signal (z-score)", "setting": "GalNAc(a1-3)Gal", "value": -0.249},
      {"measurement": "glycan array binding signal (z-score)", "setting": "GalNAc(a1-3)GalNAc", "value": -0.231},
      {"measurement": "glycan array binding signal (z-score)", "setting": "[27]", "value": -0.239},
      {"measurement": "glycan array binding signal (z-score)", "setting": "GalNAc(b1-3)Gal", "value": -0.248}
    ]}
  ]
}
